Measured values published in article PMC12820563, “FoxP3 forms a head-to-head dimer in vivo and stabilizes its multimerization on adjacent microsatellites”.
The list shows a part of the results.

target: T1, MBP-FoxP1dN (Mus musculus, UniProt P58462 326-579); experiment: PD-seq (MBP pull-down with sequencing); 20 mM Tris-HCl pH 7.5, 100 mM NaCl, 1.5 mM MgCl2, 0.4 uM protein, 0.1 uM dsDNA library, 30 min, room temperature, amylose pull-down; high values mean tight binding; details: protein: recombinant; tags: His6-MBP; chain copies: 2; dsDNA, one strand shown
T1 sequence: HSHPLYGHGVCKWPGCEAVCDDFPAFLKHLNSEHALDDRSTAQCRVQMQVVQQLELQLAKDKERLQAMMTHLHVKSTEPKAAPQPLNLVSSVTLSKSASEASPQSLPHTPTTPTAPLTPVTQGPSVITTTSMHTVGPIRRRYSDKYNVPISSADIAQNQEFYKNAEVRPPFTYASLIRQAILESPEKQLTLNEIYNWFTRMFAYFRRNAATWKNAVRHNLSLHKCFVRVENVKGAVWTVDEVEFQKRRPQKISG
Outline: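 A fragment of mouse FoxP3 or FoxP1 without its N-terminus, carrying a His6-MBP tag and produced in E. coli, was combined at 0.4 µM with a 0.1 µM degenerate double-stranded DNA library filled in with Klenow. The mixture sat for 30 min at room temperature in Tris pH 7.5 buffer containing NaCl and MgCl2. Protein–DNA complexes were captured on amylose resin, washed three times, and the DNA was freed with proteinase K, barcoded by PCR and sequenced on Illumina. Binding is expressed as reads-per-million enrichment of pull-down over input, with replicates pooled.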

| Sequence | binding signal |
| --- | --- |
| GATGATTGTTCTCCCAGCTGATGAATTACACCGTTCGAGTAAACAAATTTTCCTAATCTTTCTGTTCAAGCGCCATCTAC | 1.17 RPM ratio (pull-down/input) |
| GATGATTGTTCTCCCAGCTGATGAATTACATTGCTCGAGTAAACAAATTTTCCTAATCTTTCTGTTCAAGCGCCATCTAC | 1.21 RPM ratio (pull-down/input) |
| GATGATTGTTCTCCCAGCTGATGAATTCTCGCCCTCGAGTAAACAAATTTTCCTAATCTTTCTGTTCAAGCGCCATCTAC | 0.794 RPM ratio (pull-down/input) |
| GATGATTGTTCTCCCAGCTGATGAATTAAGCCGATCGAGTAAACAAATTTTCCTAATCTTTCTGTTCAAGCGCCATCTAC | 0.836 RPM ratio (pull-down/input) |
| GATGATTGTTCTCCCAGCTGATGAATTTCCTACGTCGAGTAAACAAATTTTCCTAATCTTTCTGTTCAAGCGCCATCTAC | 0.837 RPM ratio (pull-down/input) |
| GATGATTGTTCTCCCAGCTGATGAATTGCACCGATCGAGTAAACAAATTTTCCTAATCTTTCTGTTCAAGCGCCATCTAC | 1.16 RPM ratio (pull-down/input) |
| GATGATTGTTCTCCCAGCTGATGAATTCCGTATTTCGAGTAAACAAATTTTCCTAATCTTTCTGTTCAAGCGCCATCTAC | 0.942 RPM ratio (pull-down/input) |
| GATGATTGTTCTCCCAGCTGATGAATTTGCGCTATCGAGTAAACAAATTTTCCTAATCTTTCTGTTCAAGCGCCATCTAC | 1.09 RPM ratio (pull-down/input) |
| GATGATTGTTCTCCCAGCTGATGAATTACAGAGTTCGAGTAAACAAATTTTCCTAATCTTTCTGTTCAAGCGCCATCTAC | 1.03 RPM ratio (pull-down/input) |
| GATGATTGTTCTCCCAGCTGATGAATTACTGCATTCGAGTAAACAAATTTTCCTAATCTTTCTGTTCAAGCGCCATCTAC | 1.36 RPM ratio (pull-down/input) |
| GATGATTGTTCTCCCAGCTGATGAATTCACGAGTTCGAGTAAACAAATTTTCCTAATCTTTCTGTTCAAGCGCCATCTAC | 0.817 RPM ratio (pull-down/input) |
| GATGATTGTTCTCCCAGCTGATGAATTACAGGTTTCGAGTAAACAAATTTTCCTAATCTTTCTGTTCAAGCGCCATCTAC | 1.19 RPM ratio (pull-down/input) |
| GATGATTGTTCTCCCAGCTGATGAATTTCTAGATTCGAGTAAACAAATTTTCCTAATCTTTCTGTTCAAGCGCCATCTAC | 0.871 RPM ratio (pull-down/input) |
| GATGATTGTTCTCCCAGCTGATGAATTAGCCGATTCGAGTAAACAAATTTTCCTAATCTTTCTGTTCAAGCGCCATCTAC | 0.875 RPM ratio (pull-down/input) |
| GATGATTGTTCTCCCAGCTGATGAATTTTGTACCTCGAGTAAACAAATTTTCCTAATCTTTCTGTTCAAGCGCCATCTAC | 0.964 RPM ratio (pull-down/input) |
| GATGATTGTTCTCCCAGCTGATGAATTCTAGAAATCGAGTAAACAAATTTTCCTAATCTTTCTGTTCAAGCGCCATCTAC | 0.972 RPM ratio (pull-down/input) |
| GATGATTGTTCTCCCAGCTGATGAATTTTTCTGTTCGAGTAAACAAATTTTCCTAATCTTTCTGTTCAAGCGCCATCTAC | 0.964 RPM ratio (pull-down/input) |
| GATGATTGTTCTCCCAGCTGATGAATTTACGGGTTCGAGTAAACAAATTTTCCTAATCTTTCTGTTCAAGCGCCATCTAC | 1.11 RPM ratio (pull-down/input) |
| GATGATTGTTCTCCCAGCTGATGAATTCGTATACTCGAGTAAACAAATTTTCCTAATCTTTCTGTTCAAGCGCCATCTAC | 1.04 RPM ratio (pull-down/input) |
| GATGATTGTTCTCCCAGCTGATGAATTAGTAGAATCGAGTAAACAAATTTTCCTAATCTTTCTGTTCAAGCGCCATCTAC | 0.994 RPM ratio (pull-down/input) |

| Sequence | binding signal |
| --- | --- |
| GATGATTGTTCTCCCAGCTGATGAATTCATGTTATCGAGTAAACAAATTTTCCTAATCTTTCTGTTCAAGCGCCATCTAC | 1.78 RPM ratio (pull-down/input) |
| GATGATTGTTCTCCCAGCTGATGAATTTCGGGGCTCGAGTAAACAAATTTTCCTAATCTTTCTGTTCAAGCGCCATCTAC | 0.745 RPM ratio (pull-down/input) |
| GATGATTGTTCTCCCAGCTGATGAATTCGTGACTTCGAGTAAACAAATTTTCCTAATCTTTCTGTTCAAGCGCCATCTAC | 0.886 RPM ratio (pull-down/input) |
| GATGATTGTTCTCCCAGCTGATGAATTACGGTGCTCGAGTAAACAAATTTTCCTAATCTTTCTGTTCAAGCGCCATCTAC | 0.883 RPM ratio (pull-down/input) |
| GATGATTGTTCTCCCAGCTGATGAATTAAGTATGTCGAGTAAACAAATTTTCCTAATCTTTCTGTTCAAGCGCCATCTAC | 0.977 RPM ratio (pull-down/input) |
| GATGATTGTTCTCCCAGCTGATGAATTACACATATCGAGTAAACAAATTTTCCTAATCTTTCTGTTCAAGCGCCATCTAC | 1.4 RPM ratio (pull-down/input) |
| GATGATTGTTCTCCCAGCTGATGAATTGTCAATGTCGAGTAAACAAATTTTCCTAATCTTTCTGTTCAAGCGCCATCTAC | 1.2 RPM ratio (pull-down/input) |
| GATGATTGTTCTCCCAGCTGATGAATTTGGGTGCTCGAGTAAACAAATTTTCCTAATCTTTCTGTTCAAGCGCCATCTAC | 0.895 RPM ratio (pull-down/input) |
| GATGATTGTTCTCCCAGCTGATGAATTGGTCCGCTCGAGTAAACAAATTTTCCTAATCTTTCTGTTCAAGCGCCATCTAC | 0.843 RPM ratio (pull-down/input) |
| GATGATTGTTCTCCCAGCTGATGAATTGGCAACCTCGAGTAAACAAATTTTCCTAATCTTTCTGTTCAAGCGCCATCTAC | 0.912 RPM ratio (pull-down/input) |
| GATGATTGTTCTCCCAGCTGATGAATTATTAACGTCGAGTAAACAAATTTTCCTAATCTTTCTGTTCAAGCGCCATCTAC | 1.19 RPM ratio (pull-down/input) |
| GATGATTGTTCTCCCAGCTGATGAATTCCGTGGTTCGAGTAAACAAATTTTCCTAATCTTTCTGTTCAAGCGCCATCTAC | 0.818 RPM ratio (pull-down/input) |
| GATGATTGTTCTCCCAGCTGATGAATTCATCAGGTCGAGTAAACAAATTTTCCTAATCTTTCTGTTCAAGCGCCATCTAC | 0.792 RPM ratio (pull-down/input) |
| GATGATTGTTCTCCCAGCTGATGAATTCAGAGGGTCGAGTAAACAAATTTTCCTAATCTTTCTGTTCAAGCGCCATCTAC | 0.74 RPM ratio (pull-down/input) |
| GATGATTGTTCTCCCAGCTGATGAATTAACGTGCTCGAGTAAACAAATTTTCCTAATCTTTCTGTTCAAGCGCCATCTAC | 0.89 RPM ratio (pull-down/input) |
| GATGATTGTTCTCCCAGCTGATGAATTACGTTGGTCGAGTAAACAAATTTTCCTAATCTTTCTGTTCAAGCGCCATCTAC | 1.01 RPM ratio (pull-down/input) |
| GATGATTGTTCTCCCAGCTGATGAATTCCCTTGATCGAGTAAACAAATTTTCCTAATCTTTCTGTTCAAGCGCCATCTAC | 0.824 RPM ratio (pull-down/input) |
| GATGATTGTTCTCCCAGCTGATGAATTTTCTGGGTCGAGTAAACAAATTTTCCTAATCTTTCTGTTCAAGCGCCATCTAC | 0.827 RPM ratio (pull-down/input) |
| GATGATTGTTCTCCCAGCTGATGAATTACCACTATCGAGTAAACAAATTTTCCTAATCTTTCTGTTCAAGCGCCATCTAC | 1.18 RPM ratio (pull-down/input) |
| GATGATTGTTCTCCCAGCTGATGAATTGCTGGCTTCGAGTAAACAAATTTTCCTAATCTTTCTGTTCAAGCGCCATCTAC | 0.933 RPM ratio (pull-down/input) |
